Data published in PMC9911399, “Two distinct binding modes provide the RNA-binding protein RbFox with extraordinary sequence specificity”.
Where a chain is given by its changes, count along the chain named. Some of the results follow.

T1: RBFOX1 RRM RbFoxmut (Fox-RRM*) (Homo sapiens, UniProt Q9NWB1 109-208, R118D;E147R;N151S;E152T)
T1 sequence: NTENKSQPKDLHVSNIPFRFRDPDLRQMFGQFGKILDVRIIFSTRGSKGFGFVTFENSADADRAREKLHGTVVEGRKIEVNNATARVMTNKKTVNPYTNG

B1: UGUGCCG (DNA:RNA)
RNA: GGGAGACCGGAAUUCAGAUUGUCCUGUGCCGUUAAAUCCCGUCGUAGCCACCA
DNA 1: CAATCTGAATTCCGGTCTCCC
DNA 2: TGGTGGCTACGACGGGATT
B2: CGGCUCG (DNA:RNA)
RNA: B1 RNA with U25C, U27G, G28C, C29U
DNA 1: CAATCTGAATTCCGGTCTCCC
DNA 2: TGGTGGCTACGACGGGATT
B3: AAAUUGA (DNA:RNA)
RNA: GGGAGACCGGAAUUCAGAUUGUCCAAAUUGAUUAAAUCCCGUCGUAGCCACCA
DNA 1: CAATCTGAATTCCGGTCTCCC
DNA 2: TGGTGGCTACGACGGGATT
B4: CAUAAAG (DNA:RNA)
RNA: B1 RNA with U25C, G26A, G28A, C29A, C30A
DNA 1: CAATCTGAATTCCGGTCTCCC
DNA 2: TGGTGGCTACGACGGGATT
B5: GAGCACU (DNA:RNA)
RNA: B3 RNA with A25G, A27G, U28C, U29A, G30C, A31U
DNA 1: CAATCTGAATTCCGGTCTCCC
DNA 2: TGGTGGCTACGACGGGATT
B6: GCACGGA (DNA:RNA)
RNA: B3 RNA with A25G, A26C, U28C, U29G
DNA 1: CAATCTGAATTCCGGTCTCCC
DNA 2: TGGTGGCTACGACGGGATT
B7: AUCACCG (DNA:RNA)
RNA: B1 RNA with U25A, G26U, U27C, G28A
DNA 1: CAATCTGAATTCCGGTCTCCC
DNA 2: TGGTGGCTACGACGGGATT
B8: CCACCUC (DNA:RNA)
RNA: B3 RNA with A25C, A26C, U28C, U29C, G30U, A31C
DNA 1: CAATCTGAATTCCGGTCTCCC
DNA 2: TGGTGGCTACGACGGGATT
B9: GCCGUGA (DNA:RNA)
RNA: B3 RNA with A25G, A26C, A27C, U28G
DNA 1: CAATCTGAATTCCGGTCTCCC
DNA 2: TGGTGGCTACGACGGGATT
B10: GAGCCGG (DNA:RNA)
RNA: B3 RNA with A25G, A27G, U28C, U29C, A31G
DNA 1: CAATCTGAATTCCGGTCTCCC
DNA 2: TGGTGGCTACGACGGGATT
B11: UCACUGG (DNA:RNA)
RNA: B3 RNA with A25U, A26C, U28C, A31G
DNA 1: CAATCTGAATTCCGGTCTCCC
DNA 2: TGGTGGCTACGACGGGATT
B12: AAAAUGA (DNA:RNA)
RNA: B3 RNA with U28A
DNA 1: CAATCTGAATTCCGGTCTCCC
DNA 2: TGGTGGCTACGACGGGATT
B13: UCCAGUC (DNA:RNA)
RNA: B1 RNA with G26C, U27C, G28A, C29G, C30U, G31C
DNA 1: CAATCTGAATTCCGGTCTCCC
DNA 2: TGGTGGCTACGACGGGATT
B14: CCUUUUG (DNA:RNA)
RNA: B3 RNA with A25C, A26C, A27U, G30U, A31G
DNA 1: CAATCTGAATTCCGGTCTCCC
DNA 2: TGGTGGCTACGACGGGATT
B15: GGACACA (DNA:RNA)
RNA: B3 RNA with A25G, A26G, U28C, U29A, G30C
DNA 1: CAATCTGAATTCCGGTCTCCC
DNA 2: TGGTGGCTACGACGGGATT
B16: CAGGCAG (DNA:RNA)
RNA: B1 RNA with U25C, G26A, U27G, C30A
DNA 1: CAATCTGAATTCCGGTCTCCC
DNA 2: TGGTGGCTACGACGGGATT
B17: GUUCUUU (DNA:RNA)
RNA: B3 RNA with A25G, A26U, A27U, U28C, G30U, A31U
DNA 1: CAATCTGAATTCCGGTCTCCC
DNA 2: TGGTGGCTACGACGGGATT
B18: GCUGCAG (DNA:RNA)
RNA: B1 RNA with U25G, G26C, C30A
DNA 1: CAATCTGAATTCCGGTCTCCC
DNA 2: TGGTGGCTACGACGGGATT
B19: UCGCUCU (DNA:RNA)
RNA: B1 RNA with G26C, U27G, G28C, C29U, G31U
DNA 1: CAATCTGAATTCCGGTCTCCC
DNA 2: TGGTGGCTACGACGGGATT
B20: CUCGAAG (DNA:RNA)
RNA: B1 RNA with U25C, G26U, U27C, C29A, C30A
DNA 1: CAATCTGAATTCCGGTCTCCC
DNA 2: TGGTGGCTACGACGGGATT
B21: ACUGGAC (DNA:RNA)
RNA: B1 RNA with U25A, G26C, C29G, C30A, G31C
DNA 1: CAATCTGAATTCCGGTCTCCC
DNA 2: TGGTGGCTACGACGGGATT
B22: UUAACCU (DNA:RNA)
RNA: B1 RNA with G26U, U27A, G28A, G31U
DNA 1: CAATCTGAATTCCGGTCTCCC
DNA 2: TGGTGGCTACGACGGGATT
B23: UCGCCAU (DNA:RNA)
RNA: B1 RNA with G26C, U27G, G28C, C30A, G31U
DNA 1: CAATCTGAATTCCGGTCTCCC
DNA 2: TGGTGGCTACGACGGGATT
B24: CUUCGAC (DNA:RNA)
RNA: B1 RNA with U25C, G26U, G28C, C29G, C30A, G31C
DNA 1: CAATCTGAATTCCGGTCTCCC
DNA 2: TGGTGGCTACGACGGGATT
B25: CAUCUAG (DNA:RNA)
RNA: B3 RNA with A25C, A27U, U28C, G30A, A31G
DNA 1: CAATCTGAATTCCGGTCTCCC
DNA 2: TGGTGGCTACGACGGGATT
B26: CUAGCUA (DNA:RNA)
RNA: B3 RNA with A25C, A26U, U28G, U29C, G30U
DNA 1: CAATCTGAATTCCGGTCTCCC
DNA 2: TGGTGGCTACGACGGGATT
B27: AAAGCUC (DNA:RNA)
RNA: B3 RNA with U28G, U29C, G30U, A31C
DNA 1: CAATCTGAATTCCGGTCTCCC
DNA 2: TGGTGGCTACGACGGGATT
B28: AUAACUG (DNA:RNA)
RNA: B3 RNA with A26U, U28A, U29C, G30U, A31G
DNA 1: CAATCTGAATTCCGGTCTCCC
DNA 2: TGGTGGCTACGACGGGATT
B29: GAAGAGU (DNA:RNA)
RNA: B3 RNA with A25G, U28G, U29A, A31U
DNA 1: CAATCTGAATTCCGGTCTCCC
DNA 2: TGGTGGCTACGACGGGATT
B30: ACCGUUA (DNA:RNA)
RNA: B3 RNA with A26C, A27C, U28G, G30U
DNA 1: CAATCTGAATTCCGGTCTCCC
DNA 2: TGGTGGCTACGACGGGATT
B31: GCGCUUC (DNA:RNA)
RNA: B3 RNA with A25G, A26C, A27G, U28C, G30U, A31C
DNA 1: CAATCTGAATTCCGGTCTCCC
DNA 2: TGGTGGCTACGACGGGATT

Molecular target: T1, RBFOX1 RRM RbFoxmut (Fox-RRM*)
Test: EMSA; HiTS-Eq, 1 nM pool, 10 min; buffer printed only for the single-RNA assays: 10 mM Tris pH 7.5, 150 mM NaCl, 3.4 mM EDTA, 0.001% NP-40, 30 C
Settings: tags: His6 N-terminal (pET28a); label: 5' 32P
Summary of the method: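 Purified RbFox RRM (wild type or mutant) was equilibrated for 10 min in 50 µL with 1 nM of a 5′-radiolabelled pool of RNA with 7 randomized nucleotides, its flanks annealed to DNA oligonucleotides, across increasing protein concentrations. Free RNA was separated by 8% native PAGE, excised, reverse-transcribed, PCR-barcoded and sequenced on an Illumina HiSeq 2500. Relative association constants came from read-count changes of each variant against the control reaction, normalised to the cognate motif.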

Row | Binder | binding signal
1 | B1 | 0.114 KA relative to UGCAUGU
2 | B2 | 0.217 KA relative to UGCAUGU
3 | B3 | 0.0726 KA relative to UGCAUGU
4 | B4 | 0.0993 KA relative to UGCAUGU
5 | B5 | 0.0629 KA relative to UGCAUGU
6 | B6 | 0.107 KA relative to UGCAUGU
7 | B7 | 0.117 KA relative to UGCAUGU
8 | B8 | 0.0707 KA relative to UGCAUGU
9 | B9 | 0.102 KA relative to UGCAUGU
10 | B10 | 0.0694 KA relative to UGCAUGU
11 | B11 | 0.0879 KA relative to UGCAUGU
12 | B12 | 0.0892 KA relative to UGCAUGU
13 | B13 | 0.0782 KA relative to UGCAUGU
14 | B14 | 0.103 KA relative to UGCAUGU
15 | B15 | 0.0556 KA relative to UGCAUGU
16 | B16 | 0.0891 KA relative to UGCAUGU

Row | Binder | binding signal
17 | B17 | 0.0764 KA relative to UGCAUGU
18 | B18 | 0.109 KA relative to UGCAUGU
19 | B19 | 0.0658 KA relative to UGCAUGU
20 | B20 | 0.0859 KA relative to UGCAUGU
21 | B21 | 0.0904 KA relative to UGCAUGU
22 | B22 | 0.0822 KA relative to UGCAUGU
23 | B23 | 0.098 KA relative to UGCAUGU
24 | B24 | 0.0742 KA relative to UGCAUGU
25 | B25 | 0.105 KA relative to UGCAUGU
26 | B26 | 0.0998 KA relative to UGCAUGU
27 | B27 | 0.0711 KA relative to UGCAUGU
28 | B28 | 0.102 KA relative to UGCAUGU
29 | B29 | 0.0905 KA relative to UGCAUGU
30 | B30 | 0.0994 KA relative to UGCAUGU
31 | B31 | 0.0864 KA relative to UGCAUGU
